Measured values reported in the supplement of paper PMC10498489.
Out of some 2,300 compounds screened, about 330 (14%) showed activity.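 Rule for the calls: active = median modified Z-score above 1.96; inactive = 1.96 or below.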 Only a part is listed here, and it is no random draw.

tested on: HepG2 Srxn1-GFP reporter cells (+30 nM CDDO-Me); experiment: Srxn1-GFP intensity median modified Z-score relative to plate median; higher = stronger NRF2 / oxidative stress reporter activation, active = hit call of the paper; settings: 10 µM; exposure time: 24h
Outline: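 HepG2 Srxn1-GFP BAC reporter cells were seeded at 20,000 per well in 96-well plates and co-exposed for 24 h to compound at 10 μM and an NRF2 activator at 30 nM, with DMSO at ≤0.1%, in three replicate plates. Cells were fixed with formaldehyde, stained with Hoechst and imaged by confocal microscopy, and cytoplasmic GFP was measured per cell, with images holding under 100 cells discarded. The reported value is the median over replicates of each plate's modified Z-score of GFP intensity. For this score, scaling used 1.4826 × median absolute deviation.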

Row | SMILES | Srxn1-GFP intensity median modified Z-score
1 | CN(C)Cc1c[nH]c2ccccc12 [euspeclibcmpd2039] | inactive: 0.0259
2 | CC(=O)O[C@@H]1CC2C(C)(C)C(=O)C=C[C@]2(C)C2CC[C@]3(C)C(=CC(=O)O[C@H]3c3ccoc3)[C@@]21C (stereo partly drawn) [euspeclibcmpd1551] | active: 38.8
3 | C=C/C=C\CC1=C(C)C(OC(=O)C2[C@@H](C=C(C)C)C2(C)C)CC1=O (stereo partly drawn) [euspeclibcmpd1257] | active: 2.3
4 | C=C(C)[C@@H]1[C@H]2OC(=O)[C@@H]1[C@]1(O)C[C@H]3O[C@]34C(=O)O[C@H]2[C@]14C [euspeclibcmpd1351] | active: 17.9
5 | CC1OC(OC2C=C3CCC4C(CCC5(C)C(c6ccc(=O)oc6)CCC45O)C3(C)CC2)C(O)C(O)C1O (stereo not drawn) [euspeclibcmpd1931] | active: 2.81
6 | NNCc1ccccc1 [euspeclibcmpd1327] | inactive: 0.32
7 | CC1=CCC[C@@H]2C1(C)CCC(C)[C@@]2(C)CC/C(C)=C/Cn1c[n+](C)c2c(=N)nc[nH]c21 (stereo partly drawn) [euspeclibcmpd1491] | active: 13.7
8 | CC(=O)OC1CN2CCC1CC2 (stereo not drawn) [euspeclibcmpd385] | inactive: -0.0983
9 | CC(=O)OC1CC(OC(C)=O)C2(C)C(CC(OC(C)=O)C3(C)C2CCC2(C)C(c4ccoc4)C(=O)C4OC423)C1(C)C (stereo not drawn) [euspeclibcmpd1943] | inactive: 1.55
10 | C[N+](C)(C)CCCCCCCCCC[N+](C)(C)C [euspeclibcmpd902] | active: 4.92
11 | C[C@@H]([C@H](O)c1ccccc1)N(C)C [euspeclibcmpd1255] | inactive: 0.2
12 | CCCN1C[C@H](CSC)C[C@@H]2c3cccc4[nH]cc(c34)C[C@H]21 [euspeclibcmpd1280] | inactive: -0.0876
13 | COc1cc([C@@H]2c3cc4c(cc3[C@H](O)[C@H]3COC(=O)C23)OCO4)cc(OC)c1OC (stereo partly drawn) [euspeclibcmpd2203] | active: 11.5
14 | COc1cc([C@@H]2c3cc4c(cc3[C@H](O)[C@H]3COC(=O)C23)OCO4)cc(OC)c1OC (stereo partly drawn) [euspeclibcmpd2060] | active: 27.1
15 | CC1=CC(=O)c2c(O)cccc2C1=O [euspeclibcmpd1444] | active: 67.7
16 | CC(C)N(CCC(C(N)=O)(c1ccccc1)c1ccccn1)C(C)C (stereo not drawn) [euspeclibcmpd802] | inactive: -0.08
17 | Cc1ccc(-c2nc3ccc(C)cn3c2CC(=O)N(C)C)cc1 [euspeclibcmpd758] | inactive: -0.989
18 | C[N+]1([O-])C2CCC1CC(OC(=O)C(CO)c1ccccc1)C2 (stereo not drawn) [euspeclibcmpd2322] | inactive: -0.247
19 | CC1=NCCc2c1[nH]c1cc(O)ccc21 [euspeclibcmpd2357] | active: 7.71
20 | O=C(COc1ccc2ccccc2c1)N1CCN(Cc2ccc3c(c2)OCO3)CC1 | active: 4.61
21 | C1CCc2nnnn2CC1 [euspeclibcmpd962] | inactive: 0.439
22 | CC(C)(O)[C@@H]1[C@H]2OC(=O)[C@@H]1[C@]1(O)C[C@H]3O[C@]34C(=O)O[C@H]2[C@]14C [euspeclibcmpd1439] | inactive: -0.455
23 | O=c1[nH]c2ccccc2n1CCCN1CCC(n2c(=O)[nH]c3cc(Cl)ccc32)CC1 [euspeclibcmpd111] | inactive: 0.232
